# This is one part of the list.
# Molecular target: T1, OsWOX13 (Oryza sativa, UniProt Q5QMM3 1-267)
# T1 sequence: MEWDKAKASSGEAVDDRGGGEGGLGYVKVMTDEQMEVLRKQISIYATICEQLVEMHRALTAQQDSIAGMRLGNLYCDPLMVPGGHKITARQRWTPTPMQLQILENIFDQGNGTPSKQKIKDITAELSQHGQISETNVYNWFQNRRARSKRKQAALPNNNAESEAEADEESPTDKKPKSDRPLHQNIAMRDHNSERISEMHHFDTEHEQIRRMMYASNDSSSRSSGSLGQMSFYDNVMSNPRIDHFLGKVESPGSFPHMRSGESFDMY
# Assay: protein-binding microarray (RPBM); PBS, 2% BSA, 51.3 ng/ul salmon testes DNA, 50 uM zinc acetate, 200 nM TF, 25 C, 1 h; high values mean tight binding
# Details: protein: recombinant; tags: N-terminal polyhistidine and DsRed monomer fusion (pET32a); label: CyDye5-dUTP incorporated in the synthesized complementary strand; 3' TTTTT single-stranded linker to array surface; dsDNA, one strand shown
# Method in brief: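 Transcription factors were each fused at the N-terminus to a polyhistidine tag plus DsRed and expressed in E. coli BL21-CodonPlus before Ni–NTA purification. Binding to a double-stranded custom Agilent array was carried out with 200 nM protein at 25 °C for 1 h in PBS, 2% BSA, salmon testes DNA and 50 µM zinc acetate. The binding signal is per-feature fluorescence intensity, in arbitrary units, on an Axon 4000B scanner.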
row,Sequence,binding signal
1,AACTAAATTTACAAATACAAGTTTAGTTATATAGGACTGTCGGAGTCACCTAGTGCAG,21000 fluorescence intensity (a.u.)
2,ACAATCAGCATTGATTAGATAGCATTTTCTAAACTACTTGCGGAGTCACCTAGTGCAG,20200 fluorescence intensity (a.u.)
3,CAAACTTAAATGATTAAGTAAATTTCACAAAATTACACATCGGAGTCACCTAGTGCAG,14300 fluorescence intensity (a.u.)
4,TTTCTCTCAATCTTAATAGATTTGGCCGGCGTTTCCTTTGCGGAGTCACCTAGTGCAG,8120 fluorescence intensity (a.u.)
5,TACTCCTGTTGATAGGTATATTGATCTGAATCATCTGGTACGGAGTCACCTAGTGCAG,3790 fluorescence intensity (a.u.)
6,TTTTAATCGAAACTTAATTTCAAGCTGTATCCAAATTTCGCGGAGTCACCTAGTGCAG,7150 fluorescence intensity (a.u.)
7,CATAACTAATTAGTAACACAAAGAATATTGATTAGATGATCGGAGTCACCTAGTGCAG,43100 fluorescence intensity (a.u.)
8,TAAATGATTTGAAGCTAGTATATAGCTATACTATTAAACTCGGAGTCACCTAGTGCAG,12800 fluorescence intensity (a.u.)
9,AATAATTTTAGCTGTGTTGTCTTGGCAGGCGCCGGCGTGTCGGAGTCACCTAGTGCAG,4080 fluorescence intensity (a.u.)
10,TATTGATTTGTTCATTTAACCTGATGACTGTCAGAATTCTCGGAGTCACCTAGTGCAG,34700 fluorescence intensity (a.u.)
11,TGATGTAATAATTACTATAGCTCACTGACGTAGGTTTATTCGGAGTCACCTAGTGCAG,5620 fluorescence intensity (a.u.)
12,CAAAATTGGAAAATAATTTGGAAAAGTAAATCTCCTCCGACGGAGTCACCTAGTGCAG,27000 fluorescence intensity (a.u.)
13,TCTTAAATTGGTACAGTAATACTCTCTCCGTATTCGTATTCGGAGTCACCTAGTGCAG,24800 fluorescence intensity (a.u.)
14,AGCATCCAATCATGTAACCAGCTGCATAATTTACATGTGTCGGAGTCACCTAGTGCAG,22600 fluorescence intensity (a.u.)
15,TGGTGGTGGTGGTGGTAGGGTTAGGGGTAGGAGGGGTCTCCGGAGTCACCTAGTGCAG,8890 fluorescence intensity (a.u.)
16,ATTATGTCATGTTTGGATTGATCCACCTAGCTTTACACATCGGAGTCACCTAGTGCAG,3910 fluorescence intensity (a.u.)
17,CACATCAATCTATCTCCCTTCCTCCTCTCTCTCTCTCACTCGGAGTCACCTAGTGCAG,9570 fluorescence intensity (a.u.)
18,CAGGGATCACACTCTAATCACGGTCATTAATCCCACTCATCGGAGTCACCTAGTGCAG,3880 fluorescence intensity (a.u.)
19,TCTTGATAGCTATTTAGATTGAAGGATCTGATTTCTTTCTCGGAGTCACCTAGTGCAG,38200 fluorescence intensity (a.u.)
20,GTAATAATAATAATAATAAATAAATAAATTGTTGAACTAGCGGAGTCACCTAGTGCAG,7300 fluorescence intensity (a.u.)
21,TTACTAATTTAGTGATGTATATATAGGCAGTAGGCACATACGGAGTCACCTAGTGCAG,13600 fluorescence intensity (a.u.)

row,Sequence,binding signal
1,TGATCAATCAAGAAGACGATCGTGCCGATATCATGGCACCCGGAGTCACCTAGTGCAG,19700 fluorescence intensity (a.u.)
2,CTTATGCTGATTAATTAGGGCTAATGAGCTATGCATGCAACGGAGTCACCTAGTGCAG,33000 fluorescence intensity (a.u.)
3,GTGAGGGGATTGAGAAGATTGGGAAGATACGCAAAACGAGCGGAGTCACCTAGTGCAG,16100 fluorescence intensity (a.u.)
4,TAATAACAAAATAAATTACAGTTTCCGCCTAGAAACTGTGCGGAGTCACCTAGTGCAG,3440 fluorescence intensity (a.u.)
5,AACTTTGACAAAATAATTACAGTAGTATGATATTTACTTCCGGAGTCACCTAGTGCAG,9130 fluorescence intensity (a.u.)
6,CATTTGATTTTGATTTGATCGATACCATTCCGCTTTCACCCGGAGTCACCTAGTGCAG,28300 fluorescence intensity (a.u.)
7,ATGCTAATACTTGACATAATTAGGTAGAGCTCTGAGGAGCCGGAGTCACCTAGTGCAG,11900 fluorescence intensity (a.u.)
8,AGAGGATTGATGAATGCAGCTGCAAGCACAGCACGCAGTACGGAGTCACCTAGTGCAG,13600 fluorescence intensity (a.u.)
9,GATAGATAGATAGATAGAAGATTGCATACTTACTGTATGACGGAGTCACCTAGTGCAG,25600 fluorescence intensity (a.u.)
10,TACCATATTTATGAATGCACTAATTGGTTAACCCGCAAATCGGAGTCACCTAGTGCAG,12700 fluorescence intensity (a.u.)
11,AATAACTGAACAATCAATCGCACGCCATCGAGAAGTAGACCGGAGTCACCTAGTGCAG,24000 fluorescence intensity (a.u.)
12,TTGGCAATAATCACACCAATCATATCACAGTTGTCGTTGACGGAGTCACCTAGTGCAG,16400 fluorescence intensity (a.u.)
13,GTATGATTACTATTGGAATTTTATCTTATCTCTACTATTACGGAGTCACCTAGTGCAG,29900 fluorescence intensity (a.u.)
14,TGAAAATTATATGATTATAATCTATTTTGTTTTAATTTATCGGAGTCACCTAGTGCAG,24800 fluorescence intensity (a.u.)
15,GTGATTAATAAATAATATACACCTCATATTTAGTGTTGGTCGGAGTCACCTAGTGCAG,26100 fluorescence intensity (a.u.)
16,TATATATATATATATATATATATATATATATTTAGATATGCGGAGTCACCTAGTGCAG,32800 fluorescence intensity (a.u.)
17,ATAGATTAAACAATAACAGGCTCACTATAATTTATGTTATCGGAGTCACCTAGTGCAG,18300 fluorescence intensity (a.u.)
18,TCTAATTAAGTGTTCATCTTGGCTTCCAAACCACTTCGGGCGGAGTCACCTAGTGCAG,17700 fluorescence intensity (a.u.)
19,AACTTAATTAGCGGCGAATAGTCGTGACACGTATTTTGTGCGGAGTCACCTAGTGCAG,40100 fluorescence intensity (a.u.)
20,GACTTTCGAACAAATTAGACTAATTTATATGAAATTTATGCGGAGTCACCTAGTGCAG,17700 fluorescence intensity (a.u.)
21,GATAGATAGATATGGACGCTCAGCTGTTCAGTTTGCCTGGCGGAGTCACCTAGTGCAG,8250 fluorescence intensity (a.u.)

# Reference: publication PMC7819943, “Rice protein-binding microarrays: a tool to detect cis-acting elements near promoter regions in rice”
